Experimental data taken from the supplement of paper PMC3334620.
Over roughly 33,000 sequences, “E-score (-0.5 to 0.5)” has its median near -0.054; the highest 2% begin near 0.35. The list shows a part of the results.

The sequences below were run against T1, Stb5 (UniProt P38699) (assay: PBM E-score (8-mer binding enrichment) (E-score (-0.5 to 0.5)); higher = stronger / more preferred TF binding; most listed sequences are background and not binding sites). Details: protein concentration: 200 nM; construct: GST-full length.
T1 sequence: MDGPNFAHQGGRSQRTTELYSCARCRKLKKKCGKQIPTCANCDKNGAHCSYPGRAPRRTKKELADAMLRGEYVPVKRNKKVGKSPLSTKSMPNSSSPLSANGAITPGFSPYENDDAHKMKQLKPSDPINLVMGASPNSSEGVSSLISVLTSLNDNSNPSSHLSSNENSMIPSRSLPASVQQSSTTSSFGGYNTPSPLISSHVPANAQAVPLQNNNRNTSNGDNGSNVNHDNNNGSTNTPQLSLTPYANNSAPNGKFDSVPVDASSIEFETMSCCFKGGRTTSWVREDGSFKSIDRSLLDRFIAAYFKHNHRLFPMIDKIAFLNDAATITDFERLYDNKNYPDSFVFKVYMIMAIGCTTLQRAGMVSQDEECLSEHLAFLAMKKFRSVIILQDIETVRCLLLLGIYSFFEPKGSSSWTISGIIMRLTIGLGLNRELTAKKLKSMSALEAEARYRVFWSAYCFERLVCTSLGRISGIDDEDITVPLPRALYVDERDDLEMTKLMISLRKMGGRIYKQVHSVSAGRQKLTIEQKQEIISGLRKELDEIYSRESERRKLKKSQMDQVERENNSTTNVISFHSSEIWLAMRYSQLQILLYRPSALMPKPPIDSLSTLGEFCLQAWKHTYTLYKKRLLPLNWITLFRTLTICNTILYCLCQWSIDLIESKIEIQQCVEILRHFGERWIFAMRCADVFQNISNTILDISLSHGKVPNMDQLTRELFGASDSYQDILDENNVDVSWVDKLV
Experimental: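 Universal 'all 10-mer' protein binding microarrays (Agilent AMADID 015681) probed with GST-tagged S. cerevisiae TFs (full-length or DBD) made by in vitro transcription/translation (PURExpress), about 100-200 nM. Bound TF was detected with fluorescent anti-GST. Each ungapped 8-mer (which stands for itself and its reverse complement) is scored by the PBM enrichment score (E-score), a modified Wilcoxon-Mann-Whitney statistic from -0.5 to +0.5, computed with the Universal PBM Analysis Suite. Scale: above 0.35 generally sequence-specific binding.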

Sequence | PBM E-score
AATCGCTC | -0.148
AGAGCACA | -0.391
TACGACCA | -0.192
ACCTATAT | 0.00991
AGCTCCAG | -0.0175
CATTTTAA | 0.0061
CCGCGATA | 0.248
GCCGGTTA | 0.168
GCACGAGA | 0.0318
CACGTGAC | -0.00531
CAATTAGA | -0.275
CATCATGG | -0.28
GCTTTTGA | 0.0244
CTCTTCAC | -0.151
CCATCGGC | 0.191
AATAATCA | -0.0238
AAGAGGGC | -0.216
ACTGTCCC | -0.0687
TAGTCGCA | -0.0366
CGAATGCG | 0.0485
CTCAGCCA | -0.113
CACACCCG | 0.0895
GCCAAAAC | -0.107
TAATAAAA | 0.0664
CTGATTTC | -0.0794

Sequence | PBM E-score
CAGGGCCA | -0.205
AACGCTAT | 0.0235
ACGATCCT | -0.231
CGTCCGCC | 0.338
GATGCGGA | 0.236
GTCTCTCA | -0.0305
ATAATACC | 0.368
CCTGGAAC | -0.246
CCAGATCA | -0.134
GGGTGCAC | -0.073
AGGTCAAC | -0.0325
ATCGTCGA | -0.0831
GCTAGAAC | -0.00053
CCTGGCCA | -0.309
AAGGATGG | -0.0926
GGGCTGCA | -0.251
ATCGACCC | 0.208
GGCTGTAC | 0.114
GGTAATGA | 0.00865
CAAATTAG | -0.123
AAATGTTA | -0.111
ACTGGGCG | 0.0751
ACGGTGCA | 0.127
CTCGGGAC | 0.203
TACTGTGA | -0.121

Sequence | PBM E-score
GGGACACC | 0.202
ACGTTGTA | -0.0486
CAAGTGCC | 0.147
TACAAAGA | -0.0906
CCGGACCG | 0.308
ACCGATAG | 0.167
AGCAATCC | -0.0149
CCGGCGGA | 0.385
CATCAGAG | -0.119
GCTTGAAC | 0.0794
CAATATTC | -0.139
CTCATTTA | -0.0347
ATGCGGGG | 0.27
CCAGGAAC | -0.0643
AGGTCCAA | -0.167
CAGGATAA | -0.149
AACGGATT | 0.212
GCAATGGC | 0.0959
TCAAGGCA | -0.301
AGCCAGAA | -0.157
CCTCGGAG | 0.149
AACTGAAG | -0.177
AGACAGTC | -0.0576
CACTCTCC | -0.127
CCTTAATA | 0.03

Sequence | PBM E-score
CCCCCCCA | -0.263
ACTGGTGA | -0.148
GATGCATA | -0.237
GGTACAGA | -0.0467
CAAGATAG | -0.113
CATCCTGC | -0.226
GCGATTAC | 0.035
CCACTCAC | 0.0111
GACCGCGA | 0.31
ATTTTTGC | -0.102
GCGTGAGA | -0.198
AACCTTTC | -0.118
ATTGTCGG | 0.282
CGGAAAAG | 0.0372
AAGAGAGT | -0.0713
AACCAGCA | -0.238
CCACAACC | -0.0786
CTAGAGCC | -0.102
CCCGACAC | 0.34
ATCCCATA | 0.0102
CAAGTTGG | -0.0545
CATGGTCC | -0.108
AGTCACAA | -0.296
ATACTGCG | -0.067
GCAAGCCC | 0.117

Sequence | PBM E-score
ATAGCAAA | -0.229
CATGCGGC | 0.0818
GTATGAGA | -0.0179
ATGAGGAA | -0.0881
AAGCGCGG | 0.194
CCAAGCGA | -0.153
AGTGGGTA | 0.00605
GTTGGGGA | -0.0548
CACATGGG | -0.303
AGCATCCC | -0.162
AGACCGAT | 0.272
CACGCAGA | -0.257
ACTACAAC | 0.0671
AAAAACGA | -0.246
TATGGGAA | -0.21
TCTCCGCA | 0.216
CAGGTACC | 0.0888
GAAGCGTC | -0.317
CCTCCTCG | -0.23
GAACGGGC | 0.208
AGTCTGCG | -0.124
GGTATCAA | 0.222
AGCACGAG | -0.0272
AGGGATCC | 0.0215
ATGTCGCG | -0.0197

Sequence | PBM E-score
CGAGAACG | 0.123
GCTGACCA | -0.169
GCGAGACC | -0.175
ACTTGTTC | -0.0737
AATGAATT | 0.0381
GAAGAACC | 0.0642
CCTCCCGC | -0.0684
ACAGGACC | 0.075
CTGCTGCC | -0.0349
GGTAGACA | 0.0136
ATCTCTTA | 0.0184
ATGTGCAC | -0.149
AGAGTCCC | 0.0723
AAGCAGCT | -0.132
ACGAACGG | 0.294
AATAGAGA | -0.0405
CATCCCCA | -0.318
CAAGCGAG | -0.135
GCATAGAA | -0.119
CATTAATA | -0.0218
ACGTCTCG | -0.29
GTGGAGTA | -0.234
AACCGTGG | -0.103
ACCCAGTA | -0.243
CCGCGCGC | 0.281

Sequence | PBM E-score
GATCAAGA | 0.00171
CACCGAGG | 0.23
AATGAAAC | -0.0879
AACGCGGG | 0.285
CATCAGCC | -0.215
ACCTCCTG | -0.317
AAACTCGG | 0.262
ACCCTGGG | -0.216
AGATATTA | 0.0684
CCAGCCAG | -0.223
TACCTTCA | -0.00879
AGACGCCA | -0.181
GCGATCCA | -0.067
ACCTGGGG | -0.155
CCGCTTAA | 0.233
CGACGCCC | 0.132
CTGCATTA | -0.0653
CCAGAGGC | -0.144
TAAGAGTA | -0.151
CATGATCA | -0.119
AGGCTATA | 0.0655
GGACTGGA | -0.154
